Experimental data as given in PubChem BioAssay AID686978 (National Center for Advancing Translational Sciences (NCATS), 2013).
Where “and” joins values, the source holds several entries; their conditions need not be identical. Equal entries are not always repeated. The whole screen tested about 420,000 compounds, of which about 64,000 (15%) were called active. This list was built around the results that the source calls inconclusive (neither active nor inactive); the mix of calls is not that of the screen. The call rests on the fitted dose curve; in most records, active means well fitted inhibition curve with a large enough effect; inconclusive means small, poorly fitted or top-dose-only effect; inactive means flat fitted curve, though single readings scatter. Where the call is inconclusive, the potency comes from a doubtful curve fit.

Assay: qHTS for Inhibitors of human tyrosyl-DNA phosphodiesterase 1 (TDP1): qHTS in cells in absence of CPT; further: nearly all actives have a fitted effect of over 55% in size
Conditions: DT40 Tdp1-/- hTDP1 cells, no CPT, ATP luminescence, 48 h; series mostly up to 46.2 µM
Outline: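 A cellular qHTS used chicken DT40 cells lacking endogenous Tdp1 but carrying stably transfected human TDP1. Compounds were applied without camptothecin, and cell growth kinetics were judged by ATP-dependent luminescence after ≥48 hr.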
Potency means the concentration at half of the fitted maximal effect; tags describe the fitted curve by direction and shape.

| SMILES | Potency |
| --- | --- |
| COc1ccccc1CCNC(=O)c1cccn1-c1nnc(N2CCCC2)s1 | inconclusive: 29.1 µM [inhibitor, single point] |
| COc1ccc(NC(=O)CC(NC(C)c2ccccc2)C(=O)O)cc1 (stereo unspecified) | inactive |
| Cc1cc(C(=O)COC(=O)C2=NNC(=O)CC2)c(C)n1CCc1ccccc1 | inconclusive: 29.1 µM [inhibitor, single point] |
| CCOc1ccc(-c2cc(NC(=O)c3ccccc3)c(C(=O)OC)s2)cc1 | active: 11.6 µM |
| O=C(CC(=O)c1ccccc1)c1ccccc1 | inconclusive: 20.6 µM [inhibitor, single point] and inconclusive: 29.1 µM [inhibitor, single point] |
| COc1ccc(NC(=O)Nc2ccc3c(c2)C(=O)N([C@@H](C)CO)C[C@@H](C)[C@@H](CN(C)CC2CCCCC2)O3)cc1 | active: 23.1 µM |
| Cc1cc(C)n(-c2cc(N3CCN(S(=O)(=O)c4ccc(C)c(C)c4)CC3)ccc2[N+](=O)[O-])n1 | inconclusive: 8.2 µM [inhibitor, partial curve, poor fit] |
| Clc1ccc2nc(-c3ccc(Cl)nc3)[nH]c2c1 | inconclusive: 14.6 µM [inhibitor, partial curve] |
| O=C(c1cnn(-c2ccccc2)c1)c1cc(Br)ccc1O | inconclusive: 18.4 µM [inhibitor, partial curve, poor fit] |
| O=C(Nc1ccccc1O)C(c1ccccc1)c1ccccc1 | active: 7.31 µM |
| O=C1Nc2ccc([N+](=O)[O-])cc2OC1CCN1CCN(c2ccccc2)CC1 (stereo unspecified) | inconclusive: 25.9 µM [inhibitor, single point] |
| COc1ccc(S(=O)(=O)Oc2ccc3cccc(N)c3c2)cc1 | inconclusive: 29.1 µM [inhibitor, single point] |
| COc1ccc(-c2c(C(=O)c3ccccc3)[nH]c(N)c2C(=O)c2ccccc2)cc1OC | inconclusive: 29.1 µM [inhibitor, single point] |
| COc1ccc(C(=O)N2CCN(S(=O)(=O)c3ccc(Cl)cc3)CC2)cc1S(=O)(=O)N1CCOCC1 | inconclusive: 20.6 µM [inhibitor, single point] |
| O=C(Nc1ccccc1)[C@@H]1CC=C[C@@H]2CCN(C3CCCCC3)C(=O)[C@@H]21 | inactive and inconclusive: 35.5 µM [inhibitor, single point] |
| CCOC(=O)C1=C(N)OC(C)=C(C#N)C1c1ccco1 (stereo unspecified) | inconclusive: 23.1 µM [inhibitor, partial curve, poor fit] |
